# Measured values from PubChem BioAssay AID1745845 (National Center for Advancing Translational Sciences (NCATS), 2022).
# Hit rate of the full screen: of about 360,000 compounds, about 2,600 (0.72%) were called active. Inconclusive results, whose numbers are uncertain, are shown with a selection of clear calls. The call rests on the fitted dose curve; in most records, active means well fitted inhibition curve with a large enough effect; inconclusive means small, poorly fitted or top-dose-only effect; inactive means no such curve, though single readings can be large or run the other way. Potencies beside an inconclusive call are fits to weak or partial responses and may not hold up.
# Test: Primary qHTS for Inhibitors of ATXN expression; further: nearly all actives have a fitted effect of over 55% in size
# Settings: HEK-293 ATXN2-luciferase reporter, luminescence, 24 h; activity change, negative = inhibition: at 57 µM (top of the series)
# In short: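 ATXN2-luciferase reporter cells (luciferase flanked by upstream and downstream ATXN2 gene portions) were treated 24 h at 37 °C with compounds at up to 57 uM. SteadyGlo luminescence gave expression; GF-AFC fluorescence gave viability.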
# On the % scale 0 is the no-effect control and ±100 the full control effect; potency means the concentration at half of the fitted maximal effect; tags describe the fitted curve by direction and shape.
SMILES,"activity change, negative = inhibition",Potency
CC(Nc1nc(-c2cccnc2)nc2ccccc12)c1ccc(F)cc1 (stereo unspecified),inconclusive: -49.2% [inhibitor],–
COc1ccc(CN2CCN(CC(O)Cn3c4ccccc4c4ccccc43)CC2)cc1 (stereo unspecified),–,"inconclusive: 39.8 µM [inhibitor, single point]"
S=C(Nc1ccc(Br)cc1Cl)N1CCCC1,inactive: 59.5%,–
Cc1ccc(-c2nnn(CC(=O)N(CC(=O)NC3CCCCC3)c3ccc(F)c(Cl)c3)n2)o1,–,"inconclusive: 22.4 µM [inhibitor, partial curve, poor fit]"
O=C(CSCC(=O)NN=Cc1ccccc1O)NN=Cc1ccccc1O,–,"inconclusive: 12.6 µM [inhibitor, partial curve]"
CN=C1c2cc3c(Br)c(OC)ccc3n2CCN1C,–,"inconclusive: 22.4 µM [inhibitor, single point]"
CC(C)=CCC/C(C)=C/CNC(=O)C[C@H]1C[C@H](C(=O)N(C(C)C)C(C)C)[C@@]2(C)c3[nH]c4cc(CCC(=O)N(C)C)ccc4c3CCN2C1=O,–,"inconclusive: 39.8 µM [inhibitor, single point]"
COc1ccc(C(CNC(=O)C(C)Oc2ccc(Br)cc2)N2CCCCC2)cc1 (stereo unspecified),inactive: -15%,–
O=c1[nH][nH]c(C(F)(F)F)c1C=Nc1ccccc1Cl,–,"inconclusive: 28.2 µM [inhibitor, partial curve, poor fit]"
Cc1ccccc1NC(=O)COC(=O)c1cccc(S(=O)(=O)N2CCCCC2)c1,inactive: -2.9%,–
Cc1cccc(C(=O)/C=C2/c3ccccc3CC(C)(C)N2C)c1,inactive: -37.2%,–
CCN(c1ccccc1)S(=O)(=O)c1cccc(C(=O)NCC(c2cccs2)N(C)C)c1 (stereo unspecified),inactive: -15.6%,–
CCOc1ccc(NC(=O)CN(C)C(=O)c2csc3c2CCCC3)cc1OCC,inactive: -3.74%,–
CCc1nc2c(OCCC3CCCCC3)cccn2c1N(C=O)Cc1ccccc1,–,"inconclusive: 35.5 µM [inhibitor, partial curve, poor fit]"
Cc1ccc(S(=O)(=O)N(C)Cc2ccc(C(=O)N/N=C/c3ccc(OC(F)F)cc3)cc2)cc1,–,"inconclusive: 17.8 µM [inhibitor, partial curve]"
Cc1nn(C(C)(C)C)c(OC(=O)c2cccs2)c1Sc1ccccc1,inactive: -10.7%,–
COc1ccccc1-c1cc2nc(C)c(CCC(=O)NCc3ccco3)c(C)n2n1,–,"inconclusive: 17.8 µM [inhibitor, partial curve, poor fit]"
O=C(O)c1ccc(NC(=O)c2ccc(Cl)c(S(=O)(=O)N3CCCCCC3)c2)cc1,inactive: 16.1%,–
CCCCOc1ccc(CNC(=O)NS(=O)(=O)c2ccc(OCC)cc2)cc1,–,"inconclusive: 28.2 µM [inhibitor, partial curve, poor fit]"
COCCNC(=O)CSCc1nc(-c2ccc(SC)cc2)oc1C,inactive: 0.414%,–
CCn1ncc(Br)c1C(=O)Nc1sc2c(c1C(N)=O)CCC2,–,"inconclusive: 22.4 µM [inhibitor, partial curve, poor fit]"
CCS(=O)(=O)N1CCCc2cc(C(=O)Nc3cc([N+](=O)[O-])ccc3C)ccc21,–,"inconclusive: 39.8 µM [inhibitor, single point]"

SMILES,"activity change, negative = inhibition",Potency
Cc1ccc(C)c(C(=O)N(Cc2nc(-c3ccc(Cl)cc3)no2)C(C)C)c1,–,"inconclusive: 35.5 µM [inhibitor, single point]"
COc1cc([N+](=O)[O-])ccc1NC(=S)Nc1cc(C(=O)OC(C)C)cc(C(=O)OC(C)C)c1,–,"inconclusive: 14.1 µM [inhibitor, single point]"
O=S1(=O)C[C@@H](N2CCN(CC3CC3)CC2)[C@H](COCc2ccccc2)N1,inactive: -2.91%,–
COc1ccc(N2CSC3=C(C#N)C(c4cccc(OC)c4OC)CC(=O)N3C2)cc1 (stereo unspecified),inactive: 1.76%,–
Cc1ccc(/C=C/C(=O)c2ccccc(=O)c2O)cc1C,–,"inconclusive: 37.7 µM [inhibitor, single point]"
COc1cc(NC(=S)NCCC(c2ccccc2)c2ccccc2)c(OC)cc1Cl,inactive: -2.8%,–
Oc1ccc(N=Nc2n[nH]c(-c3ccc(Cl)cc3)n2)cc1,–,"inconclusive: 35.5 µM [inhibitor, partial curve, poor fit]"
O=C1NC(=Nc2ccccc2Cl)S/C1=C\c1cc([N+](=O)[O-])ccc1O,–,"inconclusive: 25.1 µM [inhibitor, single point]"
CCCn1c(=O)sc2cc(NC(=O)c3ccccc3Cl)ccc21,–,"inconclusive: 39.8 µM [inhibitor, single point]"
CC1CCN(S(=O)(=O)c2ccc(NC(=O)Cc3ccc(S(=O)(=O)N4CCOCC4)s3)cc2)CC1,–,"inconclusive: 8.91 µM [inhibitor, full curve]"
CC(C)c1cccc(C(C)C)c1Nc1cn[nH]c1,–,"inconclusive: 39.8 µM [inhibitor, single point]"
CC(C)(C)OC(=O)N1CCC(NC(=O)c2nc[nH]c2C(=O)NCc2ccccc2)CC1,–,"inconclusive: 0.631 µM [inhibitor, full curve, poor fit]"
CCOC(=O)/C=c1/s/c(=C/c2ccccc2OC)c(=O)n1CC(=O)N1CCOCC1,inactive: 6.03%,–
CCN(CC)C(=O)c1ncn(Cc2ccccc2)c1C(=O)N(CC)CC,inactive: 1.25%,–
COc1cccc2sc(Nc3nnc(-c4ccc(F)cc4)o3)nc12,–,"inconclusive: 39.8 µM [inhibitor, single point]"
Cc1cc(Nc2ccccc2C)c2cccc(C)c2n1,–,"inconclusive: 14.1 µM [inhibitor, partial curve, poor fit]"
CC(C)N(Cc1cn(C)nc1-c1cccc(Cl)c1)Cc1nccn1C,inconclusive: -41% [inhibitor],–
CN(C)c1cc(N/N=C\c2ccccc2)nc(N(C)C)n1,inactive: -14.5%,–
Cc1cc(NC(=O)Nc2ccc3c(ccn3C)c2)sn1,inactive: 37.5%,–
C=CCn1c(C)cc(C(=O)COc2ccc(N(C)S(=O)(=O)c3ccc(NC(C)=O)cc3)cc2)c1C,inactive: -21.6%,–
CC(C)Nc1nc(NCCN2CCCC2)c2sc(-c3ccccc3)cc2n1,–,"inconclusive: 25.1 µM [inhibitor, single point]"
CCN(CC)C1CCN(C(=O)c2cc(COc3ccccc3SC)on2)C1 (stereo unspecified),inactive: 5.41%,–

SMILES,"activity change, negative = inhibition",Potency
O=C(NCCC1CCCCN1S(=O)(=O)c1ccc(Cl)cc1)C(=O)NCc1cccnc1 (stereo unspecified),–,"inconclusive: 39.8 µM [inhibitor, single point]"
CCCCOCCCNC(=O)C[C@@H]1C[C@@]2(C(=O)OCC)CCC=C2N(Cc2ccc(Cl)cc2Cl)C1=O,–,"inconclusive: 28.2 µM [inhibitor, single point]"
O=C(C1COc2ccccc2O1)N1CCOCC1 (stereo unspecified),–,"inconclusive: 0.631 µM [inhibitor, partial curve, poor fit]"
Cc1ccc(CSc2nnc(-c3ccncc3)n2C)cc1,–,"inconclusive: 39.8 µM [inhibitor, partial curve, poor fit]"
Nc1[nH]c(C(=O)c2ccccc2)c(-c2ccc(Cl)cc2Cl)c1C(=O)NCCc1c[nH]c2ccccc12,–,"inconclusive: 39.8 µM [inhibitor, single point]"
COc1ccc(Cn2c(SCc3ccc(C(=O)NC4CCCCC4)cc3)nc3ccncc32)cc1,–,"inconclusive: 35.5 µM [inhibitor, partial curve, poor fit]"
CSc1ccc(CN2CCN(C(=O)c3ccc([N+](=O)[O-])cc3)CC2)cc1,–,"inconclusive: 2.51 µM [inhibitor, partial curve, poor fit]"
CSC(=NC#N)N1CCN(c2c(C)cccc2C)CC1,–,"inconclusive: 4.74 µM [inhibitor, partial curve, poor fit]"
COc1ccc(CNCc2c(C(=O)O)c(C)n(Cc3ccccc3C)c2C)cc1OC,inactive: -17.5%,–
CC1(CNC(=O)C(=O)NCC2(C)CO2)CO1 (stereo unspecified),–,"inconclusive: 12.6 µM [inhibitor, partial curve, poor fit]"
O=S(=O)(CCSc1nc2ccccc2o1)c1nc2ccccc2s1,–,active: 28.2 µM
CC(C)=NOc1cc(NC(=O)CCl)cc([N+](=O)[O-])c1,–,"inconclusive: 39.8 µM [inhibitor, single point]"
COC(=O)c1ccc2nc(-c3ccco3)c(Cc3ccccc3C(F)(F)F)n2c1,–,"inconclusive: 28.2 µM [inhibitor, single point]"
CCc1ccc(C(c2ccccc2)c2c(C)[nH]c3ccccc23)s1 (stereo unspecified),–,"inconclusive: 39.8 µM [inhibitor, single point]"
COc1ccc(CN=C(N)N=C(N)N)cc1Cl,inactive: -23.2%,–
O=C(c1ccccc1)c1ccc2nc(N3CCCCC3)c3nncn3c2c1,–,"inconclusive: 28.2 µM [inhibitor, single point]"
COc1ccccc1CNCC(O)(c1ccc(Cl)cc1)c1ccc(Cl)cc1,–,"inconclusive: 22.4 µM [inhibitor, partial curve, poor fit]"
COC(=O)c1ccc(Oc2nc(NC(C)C)nc(N(C)C)n2)cc1,–,"inconclusive: 39.8 µM [inhibitor, single point]"
CNC(=O)COc1ccccc1C(=O)Nc1ccc2c(c1)oc1ccccc12,–,"inconclusive: 17.8 µM [inhibitor, partial curve, poor fit]"
OC(c1ccc(Cl)c(F)c1)c1ncc(-c2cccc3ccccc23)[nH]1 (stereo unspecified),–,"inconclusive: 39.8 µM [inhibitor, single point]"
C=C1C(=O)O[C@@H]2C[C@@H](C)[C@@H]3C=CC(=O)[C@@]3(C)[C@@H](OC(C)=O)[C@H]12,–,active: 1.12 µM
CCN(CC)CCNC(=O)c1ccc(NC(=O)c2ccc(Cl)c(S(=O)(=O)N3CCCCCC3)c2)cc1,–,"inconclusive: 14.1 µM [inhibitor, partial curve]"
